The supplement of paper PMC3334620
The full ranking holds about 33,000 sequences; the median of “E-score (-0.5 to 0.5)” is about -0.021, and the highest 2% start at about 0.32. Some of the results follow.

Target: T1, Zap1 (UniProt P47043)
T1 sequence: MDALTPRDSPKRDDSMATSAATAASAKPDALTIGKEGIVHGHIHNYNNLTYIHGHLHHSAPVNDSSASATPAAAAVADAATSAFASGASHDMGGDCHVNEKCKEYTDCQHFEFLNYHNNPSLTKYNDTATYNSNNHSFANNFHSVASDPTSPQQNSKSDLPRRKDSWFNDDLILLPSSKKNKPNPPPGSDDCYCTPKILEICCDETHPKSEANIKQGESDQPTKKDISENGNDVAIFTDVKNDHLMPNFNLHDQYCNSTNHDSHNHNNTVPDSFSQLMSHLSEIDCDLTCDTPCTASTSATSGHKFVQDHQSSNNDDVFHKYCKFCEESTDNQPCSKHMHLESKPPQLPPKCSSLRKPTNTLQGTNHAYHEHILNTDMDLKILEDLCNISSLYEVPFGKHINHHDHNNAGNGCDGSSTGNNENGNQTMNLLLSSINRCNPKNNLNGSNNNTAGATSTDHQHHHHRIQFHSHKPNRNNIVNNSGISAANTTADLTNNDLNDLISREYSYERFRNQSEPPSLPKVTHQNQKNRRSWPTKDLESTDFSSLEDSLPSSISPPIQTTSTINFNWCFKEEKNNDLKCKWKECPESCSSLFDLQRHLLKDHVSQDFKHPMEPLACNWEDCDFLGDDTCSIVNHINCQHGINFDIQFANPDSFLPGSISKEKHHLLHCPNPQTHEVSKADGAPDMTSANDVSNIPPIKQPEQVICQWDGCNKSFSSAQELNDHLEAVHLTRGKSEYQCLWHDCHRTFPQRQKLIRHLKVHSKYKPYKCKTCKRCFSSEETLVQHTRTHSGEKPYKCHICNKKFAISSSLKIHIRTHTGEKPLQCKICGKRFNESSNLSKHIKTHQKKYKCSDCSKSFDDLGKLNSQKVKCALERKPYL
Assay: PBM E-score (8-mer binding enrichment) (E-score (-0.5 to 0.5)); higher = stronger / more preferred TF binding; most listed sequences are background and not binding sites
Conditions: protein concentration: 200 nM; construct: GST-full length
Summary of the method: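 Masliner-normalised scans of fluorescent anti-GST signal were the basis for scoring. That signal came from GST-tagged yeast transcription factors applied at about 100-200 nM to double-stranded universal all-10-mer Agilent arrays on fresh or once-stripped slides. Each ungapped eight-base word, pooled with its reverse complement, received an E-score from the Universal PBM Analysis Suite.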

Row | Sequence | PBM E-score
1 | AAGATATA | 0.0198
2 | CCTGTGTA | 0.137
3 | CTGCAACA | 0.101
4 | ATCTATCA | 0.11
5 | AGAGATAC | 0.125
6 | CCAAGAGG | 0.0456
7 | AGAGCAAA | -0.0548
8 | CAGGAGAG | -0.183
9 | AGGGTGTC | 0.304
10 | CAAGACCA | -0.00438
11 | AAGGAGGC | -0.186
12 | ATAGAATA | 0.0849
13 | GTCTGCTA | -0.0556
14 | CCCCCTCG | -0.135
15 | CATGACGC | -0.108
16 | ACTTCTGC | -0.0871
17 | ATTATGGG | -0.012
18 | CTCAGAAA | 0.137
19 | ACTTGTTG | -0.101
20 | CTTACCCC | -0.0439
21 | AGTACGCA | -0.141
22 | AAGAGACG | -0.107
23 | CAGACTAA | -0.0449
24 | ACCAATAT | 0.165
25 | AAGGAGTG | -0.181

Row | Sequence | PBM E-score
26 | ATGTACCG | 0.0596
27 | CGGCTCTA | -0.123
28 | AACAGCAA | -0.0172
29 | ACCTCGCA | 0.191
30 | CGCCAAGC | -0.168
31 | ACACACGC | -0.0158
32 | AACCGTGA | 0.0669
33 | GAGACCTC | 0.0168
34 | CACGGTGA | -0.103
35 | CTCGGCGC | -0.018
36 | ACGCAATG | -0.0468
37 | CGGCCATA | 0.0456
38 | ATAGCACC | 0.045
39 | CGCCATAG | -0.168
40 | ATGTAAAG | 0.123
41 | AGGTCTTA | 0.172
42 | CAGAGTCG | -0.169
43 | CAGCATAG | -0.164
44 | GTCATAAC | 0.315
45 | CATTTAAA | 0.167
46 | CCACCGGG | 0.151
47 | AGGCCAGA | -0.12
48 | CCGGTTTA | 0.0867
49 | AAAAGTGC | -0.171
50 | GAATCATA | 0.0497

Row | Sequence | PBM E-score
51 | CATCACTA | 0.0202
52 | AACCCGCG | 0.27
53 | CTAAACAG | 0.00211
54 | CATAGCAC | -0.146
55 | CGGTGACA | 0.193
56 | AACATGTG | 0.108
57 | CCCCGACG | 0.144
58 | CTAGACGC | -0.226
59 | CTAAAGAG | -0.131
60 | ATTACTTA | 0.0402
61 | CTTATTTC | 0.137
62 | CGTTACCA | 0.31
63 | CCGTACCA | 0.102
64 | GGCAGGAC | -0.264
65 | GCCTCCCA | -0.305
66 | GAACGACA | -0.0514
67 | ACGTTGCT | -0.129
68 | CATAATGC | -0.0714
69 | CACTGTAC | -0.084
70 | GATTTACA | 0.0139
71 | AGTTTTTG | 0.203
72 | GCACCGAC | -0.0839
73 | GAAGCTGA | -0.0921
74 | CACTACGA | -0.0155
75 | AGATAACG | 0.0406

Row | Sequence | PBM E-score
76 | GGATTAGA | -0.243
77 | GACATGAC | -0.0772
78 | GGTAATTA | 0.252
79 | CCGAATTC | -0.067
80 | ATCACGGG | 0.0371
81 | AAGCTCTA | 0.154
82 | CGACGGCA | -0.155
83 | GGAAGTAA | -0.0575
84 | CGCTGGAA | -0.107
85 | CGGTTTTA | 0.172
86 | ACCATGTC | -0.0322
87 | CATTCCCC | -0.138
88 | CCTAAGCA | -0.00646
89 | GCGTGACA | -0.136
90 | CTGCTATA | -0.0175
91 | GCGCTGCC | -0.21
92 | GAAATGCA | -0.00568
93 | CAATCGAG | -0.255
94 | TCTGCTCA | -0.0932
95 | CAAAAGGG | 0.276
96 | CGCCTTAC | -0.0277
97 | GAAAAGAC | 0.0296
98 | CTAAGACA | -0.0463
99 | GACAAATC | -0.0199
100 | AGGCCCTG | -0.101

Row | Sequence | PBM E-score
101 | GAAAAAAA | 0.184
102 | CCGGTTTC | 0.0368
103 | AGCAGTCC | -0.307
104 | CGCGCTGA | -0.179
105 | GACATTCA | -0.184
106 | ATAGATAC | 0.0197
107 | CCGTATGA | -0.0636
108 | GTACACGA | -0.0167
109 | TTACTGAA | 0.169
110 | AGTGCGTG | -0.107
111 | ATGAGACA | -0.031
112 | GACCGAAC | 0.0709
113 | GCATCGCC | -0.194
114 | GGCAAAGA | 0.122
115 | ACACGTCG | -0.352
116 | AATGGTTC | 0.246
117 | GAGTGGCC | -0.0229
118 | CAAAGCTG | -0.0306
119 | AACCGAGT | 0.0606
120 | AACTGTTA | 0.265
121 | CCTGCGTA | -0.0182
122 | AGTAGTAC | 0.194
123 | CAATAAGC | 0.061
124 | ATATGAGC | -0.113
125 | GGCATACC | -0.195

Row | Sequence | PBM E-score
126 | TCATGGCA | 0.00543
127 | CGTCGAGC | -0.244
128 | TAACCCAA | 0.424
129 | CCCAATTC | 0.157
130 | AGTAAGGA | -0.0988
131 | ACGCGACC | 0.0626
132 | CAATCGCG | 0.0132
133 | GGCAGGGA | -0.171
134 | CATTTGGC | 0.0268
135 | GTGACTTA | -0.00842
136 | ACGCCTGA | -0.0889
137 | TATGCGCA | -0.264
138 | AAGGTAAG | 0.0248
139 | ATGACTTC | -0.0599
140 | ACTTTCCT | -0.195
141 | CGCAAGCC | -0.0515
142 | GACGGCAA | -0.0817
143 | TCGATTCA | 0.0394
144 | CCTCATCA | 0.0805
145 | GTTACAGA | 0.183
146 | ATCTCTCG | -0.106
147 | CCCACGCC | -0.0544
148 | ATACGAAT | -0.00358
149 | CACTCTAA | 0.0733
150 | GGGAATTA | 0.112

Row | Sequence | PBM E-score
151 | GACGCCTC | -0.0974
152 | ACCGTTAC | 0.129
153 | GCAGTTAC | 0.109
154 | CATTATAG | 0.0127
155 | GTAAAGAA | 0.122
156 | CGAATGAC | 0.0549
157 | CGTAGCTC | -0.191
158 | AAGAAGGC | -0.243
159 | CATTTAAG | 0.0457
160 | AAAGGCAA | 0.172
161 | ATTCGCAA | -0.0696
162 | CACTACTA | 0.053
163 | CACCCATG | -0.0985
164 | GGGGTCTA | 0.0957
165 | GTATCCCA | -0.022
166 | AAGTTTAT | 0.113
167 | AGGTGCAC | -0.14
168 | GCATAGCA | -0.0832
169 | GACCTTGC | 0.133
170 | ACAGAAAA | 0.132
171 | CCGCAAGA | 0.0833
172 | AGATCATA | 0.0757
